Values joined by “and” are separate entries in the source; they are usually repeats but may differ in a detail not shown here. Equal values may be shown once. In all, about 16,000 compounds went through this assay and about 40 (0.2%) were called active. Another 1% or so got no clear call; they are omitted. Calls follow the shape of the dose curve; as a rule, active = well fitted activation curve with a large enough effect; inconclusive = small, poorly fitted or top-dose-only effect, or another doubt; inactive = no such curve, though single readings can be large or run the other way. The list shows a part of the results. Positions of bridges follow the written chain, without caps; N, C: chain ends. Non-standard residues stand in square brackets, D forms with d. Residues, ends and D or L forms follow the SMILES beside them. ξ: configuration not given here. *: point of attachment. d(aThr) = C[C@@H](O)[C@@H](N)C(=O)O; ξThr(3R) = C[C@@H](O)C(N)C(=O)O; X8 = CC[C@@H](C)CCCCC(=O)*; dDab = NCC[C@@H](N)C(=O)O
target: Rap guanine nucleotide exchange factor 4 (Homo sapiens) (UniProt Q8WZA2); assay: Validation qHTS for agonist of cAMP-regulated guanine nucleotide exchange factor 4 (EPAC2); conditions: EPAC2 Rap1B BODIPY-GDP exchange, fluorescence; activation: active compounds read high;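 also: exchange makes BODIPY-GDP fluorescence drop when released from Rap1B; series mostly up to about 150 µM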
Summary of the method: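 Signal normalized against 6.5 mM cAMP as agonist control. Mix of EPAC2 (100 nM), RAP1B-BODIPY-GDP (250 nM) and GDP (50 uM) was read kinetically at 480/540 nm, every 5 min over 30 min, after 5 min room-temperature incubation with compound.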
% is scaled to controls: 0 for no effect and ±100 for the full control effect.

UniProt Q8WZA2, sequence (Q8WZA2 whole entry, looked up): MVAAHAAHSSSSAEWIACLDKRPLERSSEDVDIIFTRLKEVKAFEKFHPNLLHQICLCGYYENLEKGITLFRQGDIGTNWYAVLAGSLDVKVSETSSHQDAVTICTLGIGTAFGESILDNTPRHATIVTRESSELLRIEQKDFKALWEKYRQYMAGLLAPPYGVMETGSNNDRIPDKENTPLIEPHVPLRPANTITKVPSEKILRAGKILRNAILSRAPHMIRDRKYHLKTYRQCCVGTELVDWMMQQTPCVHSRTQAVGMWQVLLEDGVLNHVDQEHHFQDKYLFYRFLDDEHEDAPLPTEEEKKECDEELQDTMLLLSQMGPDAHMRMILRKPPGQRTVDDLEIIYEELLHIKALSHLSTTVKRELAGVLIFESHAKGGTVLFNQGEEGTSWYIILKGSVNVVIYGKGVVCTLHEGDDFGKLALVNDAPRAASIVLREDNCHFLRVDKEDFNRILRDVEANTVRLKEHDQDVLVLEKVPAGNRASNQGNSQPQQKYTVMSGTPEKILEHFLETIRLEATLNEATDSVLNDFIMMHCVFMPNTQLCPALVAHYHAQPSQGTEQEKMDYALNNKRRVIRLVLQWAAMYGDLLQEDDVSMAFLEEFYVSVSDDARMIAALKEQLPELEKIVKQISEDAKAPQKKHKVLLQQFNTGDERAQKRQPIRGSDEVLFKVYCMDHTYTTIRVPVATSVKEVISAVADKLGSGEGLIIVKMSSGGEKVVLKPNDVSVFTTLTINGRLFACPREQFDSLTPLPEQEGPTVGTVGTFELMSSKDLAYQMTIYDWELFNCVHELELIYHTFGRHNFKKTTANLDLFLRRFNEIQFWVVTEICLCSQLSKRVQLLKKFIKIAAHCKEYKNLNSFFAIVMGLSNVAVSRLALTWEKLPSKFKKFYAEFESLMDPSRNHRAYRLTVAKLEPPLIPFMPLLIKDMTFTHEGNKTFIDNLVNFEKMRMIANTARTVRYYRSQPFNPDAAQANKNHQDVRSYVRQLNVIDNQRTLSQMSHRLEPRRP

activation, inactive:
Cn1c(SCc2ccccc2)nnc1C1CCCN(Cc2cccc3ncccc23)C1 (stereo not given) -8.36%
CC(C)CCCCCCc1ccc(O)cc1 -21.8%
CC[C@@H](C(=O)[C@@H](C)[C@@H](O)[C@H](C)[C@@H]1O[C@@H]([C@@H](CC)C(=O)O)CC[C@@H]1C)[C@H]1O[C@]2(C=C[C@@H](O)[C@]3(CC[C@@](C)([C@H]4CC[C@](O)(CC)[C@H](C)O4)O3)O2)[C@H](C)C[C@@H]1C -3.39%
CCOC(=O)C(C)Oc1cccc2c(=O)n(CC(=O)Nc3ccc4c(c3)OCCO4)ccc12 (stereo not given) -16.4%
Cc1cccc(CN2C[C@H](Sc3ccccn3)C[C@H]2C(=O)Nc2ccc3sc(C)nc3c2)c1 0.845%
Cn1nnc2c(C(N)=O)ncn2c1=O -10.5%
C=CC1=C(C)/C(=C/c2[nH]c(Cc3[nH]c(/C=C4\NC(=O)C(C)=C4C=C)c(C)c3CCC(=O)O)c(CCC(=O)O)c2C)NC1=O 25%
O=C(NCCc1nnc2n1CCN(Cc1ccc(F)cc1)CC2)c1ccco1 -6.79%
COc1ccc(CN2CCC3(CCC(CNC(=O)c4ccco4)O3)CC2)c(OC)c1C (stereo not given) 2.04%
Cc1ccc(C(=O)Cn2c3c(sc2=N)CCCC3)cc1 -11%
CC(C)(C)NC(=O)[C@H]1CC[C@H]2[C@@H]3CC[C@H]4NC(=O)C=C[C@]4(C)[C@H]3CC[C@]12C 7.71%
N[C@]1(C(=O)O)CCc2cc(P(=O)(O)O)ccc21 -17%
O=Cc1cccc(C=O)c1 -13.6%
CC(C)c1c(C(=O)NCc2ccncc2)cnn1-c1nccc(-c2cccs2)n1 -6.96%
C=CC[N+]1([C@H]2C[C@H]3[C@@H]4CC[C@H]5C[C@H](O)[C@@H](N6CCOCC6)C[C@]5(C)[C@H]4CC[C@]3(C)[C@H]2OC(C)=O)CCCC1 -7.35%
c1ccc(Nc2nc(-c3ccc4c(c3)OCO4)nc3ccccc23)cc1 -6.54%
CC(C)=CCCC1(C)C=Cc2c(O)c3c(c(CC=C(C)C)c2O1)OC12C(=CCCC1C(C)(C)O[C@@]2(C/C=C(\C)C(=O)O)C(=O)O)C3=O (stereo not given in full) -41%
COc1cccc(CNC(=O)c2c(OC)cc(=O)n3c2CCN(C(=O)c2cc(C)ccc2C)CC3)c1 -2.82%
Cc1ccccc1-c1cncnc1N1CCNCC1 -17.2%
CC(=O)N1CCC[C@H]1C(=O)NCC1Cc2cc(-c3cccc(OC(F)(F)F)c3)ccc2O1 (stereo not given in full) -14.1%
CCCc1c(OCCCOc2ccc(OCC(=O)O)cc2)ccc(CC=O)c1O -36.1%
Nc1nc(N)c2nc(-c3ccccc3)c(N)nc2n1 -16.8% and -14.5% and -59.9%
CC[C@@H](C)CCCCC(=O)N[C@H](CCN)C(=O)N[C@@H](C(=O)N[C@H](CCN)C(=O)N[C@@H]1CCNC(=O)C([C@@H](C)O)NC(=O)[C@@H](CCN)NC(=O)[C@@H](CCN)NC(=O)[C@@H](CC(C)C)NC(=O)[C@@H](Cc2ccccc2)NC(=O)[C@@H](CCN)NC1=O)[C@@H](C)O (stereo partly drawn) (X8-[dDab][d(aThr)][dDab][dDab][dDab][dF][dL][dDab][dDab][ξThr(3R)]; lactam 4-C) -7.03%
C[C@H]1[C@H]2CC[C@H]3[C@@H]4CC=C5C[C@@H](N(C)C)CC[C@]5(C)[C@H]4CC[C@]23CN1C -13.8%
C=C[C@@H]1c2c(F)cccc2N(S(=O)(=O)c2ccc(C)cc2)[C@H](c2ccc(C(=O)OC)cc2)C1(C#N)C#N -10.5%
O=C1O[C@H]2[C@H](O)[C@@H]1OC(O)[C@H]2O (stereo not given in full) 17.7%
O=C1CCN(CCc2ccccc2)CCN1[C@H](CO)Cc1ccccc1 -5.71%
CC(C)C(=O)c1c(C(C)C)nn2ccccc12 -21.6% and -10.6% and -30.4%
COC(=O)[C@@H]1CCCN1C(=O)c1c(OC)cc(=O)n2c1CCN(Cc1cc(OC)ccc1F)CC2 -8.61%
CC(C)(C)N1[C@@H](CC(=O)O)c2cc(C(F)(F)F)ccc2S1(=O)=O -8.89%
Cn1c(=O)c(-c2cc(F)cc(F)c2)nc2cnc(N3CCOCC3)nc21 -12.8%
N#Cc1ccc(CN2CCC3(CC2)CCN(C(=O)c2ccncc2)CC3)cc1 -3.76%
CCCCCCCCCOC(=O)C1N2C(=O)[C@@H](NC(=O)COc3ccccc3)[C@H]2SC1(C)C (stereo not given in full) 0.335%
CN(Cc1ccccc1)c1ccc(C=O)cc1 -1.58%
CCC1CN(Cc2c(C)nc3sccn23)Cc2cc(OC)ccc2O1 (stereo not given) -7.58%
CCN1CCCC1CNC(=O)c1cc(S(=O)(=O)CC)ccc1OC (stereo not given) -18.4% and 3.72%
C[C@H](O)[C@H](O)[C@H]1CNc2nc(N)[nH]c(=O)c2N1 -13.8%
CC1CC[C@@]23CCC4(C)[C@@]5(C)CCC6C(C)(C)C(O)CC[C@@]6(C)C5C=C[C@@]4(OC2=O)C3C1C (stereo not given in full) -12.8%
Cc1c(C(=O)N2CCCC(c3ccccc3)C2)sc2ncnc(NCCc3ccccn3)c12 (stereo not given) -0.0832%
COc1cc(=O)n2c(c1C(=O)NC(C)c1ccco1)CCN(C(=O)c1ccc(F)cc1Cl)CC2 (stereo not given) -5.34%
CCN(CCO)C(=O)c1cnn(-c2ncc3c(n2)-c2ccccc2CCC3)c1C1CC1 3.95%
OC(CCN1CCCC1)(c1ccccc1)C1CCCCC1 (stereo not given) -5.51% and -7.43%
O=C(c1ccncc1)N1CCC2(CC1)CCN(c1ncccn1)CC2 -7.61%
Cn1c(=O)c2c(ncn2CCOC(=O)C(C)(C)Oc2ccc(Cl)cc2)n(C)c1=O 3.65%
CC1COC2=C1C(=O)C(=O)c1c2ccc2c1CCCC2(C)C (stereo not given) -9.58%
CC(=O)N1CCC[C@@]2(CCN(Cc3cc(C(F)(F)F)cc(C(F)(F)F)c3)C2)C1 -12.1%
CC(=O)/C(=C\c1ccccc1)CC(=O)O -16.7%
COc1cc(=O)n2c(c1C(=O)N(C)Cc1nonc1C)CCN(Cc1c(F)cccc1F)CC2 -13.9%
CC(C)NCC(O)COc1cccc2[nH]ccc12 (stereo not given) 0.622% and 4.89% and -59.9%
COC(=O)[C@H]1[C@H]2C[C@H]3c4[nH]c5ccccc5c4CCN3C[C@H]2CC[C@@H]1O -11.7% and -18.8%
Cc1ccccc1C(=O)O[C@H]1[C@H](Cc2ccccc2)NS(=O)(=O)[C@H]2CC3C=C[C@]12O3 -9.85%
CN(C)c1nc2cc3c(cc2cc1CN(CC1CCCO1)C(=O)/C=C/c1cccs1)OCO3 (stereo not given) -9.24%
Cc1cc2c3c(cccc3n1)C(=O)c1ccccc1-2 -10.7%
COP(=O)(OC)OC(c1ccc(Cl)cc1)P(=O)(OC)OC (stereo not given) -35.9%
CC(CN(C)C)CN1c2ccccc2CCc2ccccc21 (stereo not given) 2.83% and -21.3% and -21.9%
CCCC(O)C(CC)CO (stereo not given) -0.449%
COc1ccc(CN2CCC(n3cc(C(=O)N4CCCCC4)nn3)CC2)c(OC)c1 0.0126%
Cc1noc(C)c1-c1nccc(Nc2ccc(F)cc2)n1 -6.57%
NC(=O)c1cc[n+](CC2=C(C(=O)O)N3C(=O)C(NC(=O)C(c4ccccc4)S(=O)(=O)[O-])C3SC2)cc1 (stereo not given) -5.54%
COc1ccc(-n2c(=O)cnc3cnc(N4CCOCC4)nc32)cc1 -4.77%
O=C(NCCN1CCOCC1)c1cnn(-c2ncc3c(n2)-c2ccccc2CC3)c1C1CC1 -8.97%
NC(=O)c1ccccc1 -41.7%
COc1ccccc1C1CN(Cc2cccnc2)Cc2ccccc2O1 (stereo not given) -6.66%
O=C(c1csnn1)N1CCC2(CCCN(Cc3cc(C(F)(F)F)cc(C(F)(F)F)c3)C2)CC1 -5.92%
O=c1cnc2cnc(N3CCOCC3)nc2n1CCc1ccccc1 -3.61%
O=C(Nc1cccc(F)c1)N1CC2(CCN(C(=O)c3cccc(F)c3)CC2)C1 -6.91%
COCCn1c(=O)c(-c2cn(C)c3ccccc23)nc2cncnc21 3.9%
CC(=O)OC1CC2C(C)(C)C(=O)CC[C@]2(C)C2CC[C@@]3(C)C(c4ccoc4)OC(=O)C4OC43[C@]12C (stereo not given in full) 7.16%
C=C1C2CC[C@@]3(C)C(c4ccoc4)OC(=O)C[C@@]13OC1CC(O)C(C)(C)C(CC(=O)OC)[C@@]12C (stereo not given in full) -22.9% and -14.9%
CCCCCCCCCCCCCCCC(=O)N[C@H](CN1CCOCC1)[C@H](O)c1ccccc1 -40.1%
Cc1ccnc2ccc(I)cc12 -12.5%
COc1ccccc1CNc1ncncc1-c1cccc(C#N)c1 -24.3%
Cn1nccc1C(=O)NCC1CCC2(CCN(Cc3cccc4ncccc34)CC2)O1 (stereo not given) -1.94%
CC1(C)O[C@@H]2C[C@H]3[C@@H]4C[C@H](F)C5=CC(=O)C=C[C@]5(C)[C@H]4[C@@H](O)C[C@]3(C)[C@]2(C(=O)CO)O1 8.81%
COC(=O)[C@@H]1C[C@@H](NC(=O)c2cccc3c(C)c(C)[nH]c23)CN1Cc1cccc2ccccc12 -9.49%
